Reference: the RNAGym collection of RNA variant scans (doi:10.1093/nar/gkz1192)
Read counts are not given, so values of variants with three or more changes are uncertain.

B1: CPEB3 Ribozyme (parent)
chain: UAACAGGGGGCCACAGCAGAAGCGUUCACGUCGCAGCCCCUGUCAGAUUCUGGUGAAUCUGCGAAUUCUGCUGUAUAUCUC

Variants of: B1
Test: self-cleavage, relative activity (ratio to wild type); higher = more cleavage; in vitro, sequencing
Procedure, shortened: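 Relative activity compares each variant's cleaved/total read fraction with that of the unmutated ribozyme. To get these fractions, barcoded CPEB3 ribozyme libraries from rounds of error-prone PCR were transcribed with T7 RNA polymerase for 5 hours at 37°C and then given 15 min of DNase I treatment before EDTA was added. The RNAs were reverse transcribed with template switching and sequenced on Illumina, and DNA sequencing linked barcodes to variants. A minimum of 5 reads applied, and three batches were averaged.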

Variant	self-cleavage
UAUCAGGGGGCCACAGCCGAAGCGUUCACGUCGCAGCCCCUGCCAGAUUCUGGCGGAUCUGCGAAUUCUGCUGUGUAUCUC [A3U A18C U43C U54C A56G A75G]	0.18
UAUCAGGGGGCCACUGCAGAAGCGUUUUCGUCGCAGCCCCUGUCAGAUUCUGGUGAAACUGCGAAUUCAGCUGUACAUCUC [A3U A15U C27U A28U U58A U69A U76C]	0.12
UAUCAGGGGGCCACAGCGGAGGCGUUCACGCCGCAGCCCCUGUCAGAUUCUGGUGAAUCUGCGAAUUCUGCCGUAUAUCUC [A3U A18G A21G U31C U72C]	0.2
UAUCAGGGGGCCACGGCAGAAGCGCUCACGUCGCAGCCCCUGUCAGAUUCUGGCGAAUCUGCGAAUUCUGCUGUAUAUCUC [A3U A15G U25C U54C]	0.09
UAUCAGGGGGCCACUGCAGAAGCGUUCACGUCGCAGCCCCUGUCAGAUGCUGGUGAAACUGCGAAUUCUGCUGUAUAUCUC [A3U A15U U49G U58A]	0.13
UAUCAGGGGGCCACGGCAGAAGCGUUCACGUCGCAGCCCCUGUCAGAUUCUGGUGAAUCUGCGAAUUCUGCUGUACAUCUC [A3U A15G U76C]	1.06
UAUCAGGGGGCCACGGCAGAAGCGUUCACGUCGCAGCCCCUGUCAGAUUCUGGUGAAUCUGCGAAUUCUGCUGUAAAUCUC [A3U A15G U76A]	0.69
UAUCAGGGGGCCACUGCAGAAGCGUUUACGUCGCAGCCCCUGUCAGGUUCUGGUGAGUCUGCGAAUCCUGCCGUAUAUCUC [A3U A15U C27U A47G A57G U67C U72C]	0.1
UAUCAGGGGGCCACGGCAGAAGCGUCCACGGCGCAGCCCCUGACAGAUUCUGGUGAAUCUGCGAAUCCUGCUGUAUAUCUC [A3U A15G U26C U31G U43A U67C]	0.07
UAUCAGGGGGCCACGGCAGAAGCGUUCACGCCGCAGCCCCUGGCUGAUUCUGGUGUAUCUGCGAAUUCUGCUGUAUAUCUC [A3U A15G U31C U43G A45U A56U]	0.15
UAUCAGGGGGCCACAGCGGAAGCGUUCACGUCGCAGCCCCUGUCAGAUUCUGGUGAAUCCGCGAAUUCUGCUGUAUAUCUC [A3U A18G U60C]	0.21
UAUCAGGGGGCCACUGCAGAAGCGUUCACGUCGCAGCACCUGUCAGAUUCUGGUGAAUCUGCGAAUUCUGCCGUAUAUCUC [A3U A15U C38A U72C]	0.15
UAUCAGGGGGCCACAGCGGAAGCGUUCACGUCGCAGCCCCUGUCAGAUUCUGGUGAAUCUGCGUAUUCCGCUGUAUAUCUC [A3U A18G A64U U69C]	0.14
UAUCAGGGGGCCACAGCGGAAGCGCUCACGUCGGAGCCACUGUCAGAUUCUGGUGAAUCUGCGAAUUCUGCUGUAUAUCUC [A3U A18G U25C C34G C39A]	0.13
UAUCAGGGGGCCACGGCAGAAGCGUUCACGCCGCAGCCCCUGUCAGAUUCUGGUGAAUCUGCGAAUUCUGCUGUAUAUCUC [A3U A15G U31C]	0.26
UAUCAGGGGGCCACUGCAGAAGCGUUCACGACGCAGCCCCUGUCAGAUUCUGGUGAAUCUGCGAAUUCUGCUGUAUAUCUC [A3U A15U U31A]	0.75
UAUCAGGGGGCCACAGCCGAAGCGUUCACGUCGCAGCCCCUGUCAGAUUCUGGUGAAUCUGCGAAUUCUGCUGGAUAUCUC [A3U A18C U74G]	0.37

Variant	self-cleavage
UAUCAGGGGGCCACGGCAGAAGCGUUCACGUCGCAGCCCCUGUCAGAUUCUGGUGAAUCUGCGAAUUCUGCCGUAUAUCUC [A3U A15G U72C]	1.2
UAUCAGGGGGCCACUGCCGAAGCGUUCACGUCGCAGCCCCUGUCAGAUUCUGCUGUAUCUGCGAAUUCUGCUGGUUAUCUC [A3U A15U A18C G53C A56U U74G A75U]	0.15
UAUCAGGGGGCCACUGCAGAAGCGUUCCCGUCGCAGCCCCUGUCAGACUCUGGUGAAUCUGCGAAUUCUGCUGUAUAUCUC [A3U A15U A28C U48C]	0.27
UAUCAGGGGGCCACUGCAGAAGCGUUCACGCCGCAGCCCCUGCCAGAUUCUGGUGAAUCUGCGAAUUCUGCUGUAUAUCUC [A3U A15U U31C U43C]	0.62
UAUCAGGGGGCCACUGCAGAAGCGUUCACGUCGCAGCCCCUGUCAGAUUCUGGUGAAUCUGCGUAUUCUGCUGUAUAUCUC [A3U A15U A64U]	0.24
UAUCAGGGGGCCACAGCGGAAGCGUUCACGUCGCAGCCCCUGUCAGGUUCUGGUGAAUCUGCGAAUUCUGCUGUAUAUCCC [A3U A18G A47G U80C]	0.85
UAUCAGGGGGCCACUGCAGAAGCGUUCACGGCGCAGCCCCUGUCAGAUUCUGGUGAAUCUGCGCGUUCUGCUGUAUAACUC [A3U A15U U31G A64C A65G U78A]	0.08
UAUCAGGGGGCCACGGCAGAAGCGUUCACGUCGCAGCCCCUGUCAGAUUCUGGUGAAUCUGCGAAUCCUGCUUUAUAUCUC [A3U A15G U67C G73U]	0.17
UAUCAGGGGGCCACAGCCGAAGCGUUCACGUCGCAGCCCCUGUCAGAUUCUGGUGAAUCAGCGAAUUCCGCUGUAUAUCUC [A3U A18C U60A U69C]	0.16
UAUCAGGGGGCCACUGCGGAAGCGUUCACGUCGCAGCCCCUGUCAGAUUCUGGUGAAUCUGCGAAUUCUGCUGUAUAUCUC [A3U A15U A18G]	0.39
UAUCAGGGGGCCACAGCGGAAGCGCUCACGUCGCAGCCCCUGUCAGAUUCAGGUGAAUCUGCGAAAUCUGCUGUAUAUCCC [A3U A18G U25C U51A U66A U80C]	0.22
UAUCAGGGGGCCACUGCAGAAGCGCUCACGUCGCAGCCCCUGUCAGAUUCUGGUGAAUCCGCGAGUUCUGCUGCAUAACUC [A3U A15U U25C U60C A65G U74C U78A]	0.1
UAUCAGGGGGCCACGGCAGAAGCGUUCACGCCGCAGCCCCUGUCAGAUUCUGGUGAAUCUGCGAAUUCUGCUGUAUAUCCC [A3U A15G U31C U80C]	0.8
UAUCAGGGGGCCACGGCAGAAGCGUUCACGUCGCAGCCCCUGUCAGAUUCUGGUGAAUCUGCGAAUUCGGCUGUAUAUCUC [A3U A15G U69G]	0.48
UAUCAGGGGGCCACAGCGGAACCGUUCACGUCGCAGCCCCUGUCAGAUUCUGGUGAAUCUGCGAAUUCUGCUGUAUAUCUC [A3U A18G G22C]	0.6
UAUCAGGGGGCCACAGCGGAAGCGUUCACGUCGCGGCCCAUGUCAGAUUCUGGUGAAUCUGCGAAUUCUGCAGUAUAUCUC [A3U A18G A35G C40A U72A]	0.07
UAUCAGGGGGCCACAGCCGAAGCGUUCACGUCGUGGCCCCUGUCAGAUUCUGGUGAAUCUGCGUAUUCUGCAGUAUAUCUC [A3U A18C C34U A35G A64U U72A]	0.11
